{
  "source": "paper PMC10258805",
  "about": "“Nonpeptidic Oxazole-Based Prolyl Oligopeptidase Ligands with Disease-Modifying Effects on α-Synuclein Mouse Models of Parkinson’s Disease” (Journal of Medicinal Chemistry, 2023)",
  "key": {"[1]": {"system": "αSyn dimerization in HEK-293 cells", "assay": "αSyn-dimerization assay in HEK-293 cells", "type": "cell-based, human", "description": "Data are presented as mean + SEM. **, p < 0.01; student’s t-test."}, "HEK-293 cells": {"system": "HEK-293 cells", "assay": "Cell viability (MTT) in HEK-293 cells", "type": "cell-based, human", "conditions": "HEK-293, up to 100 μM, 24 h", "method": "Toxicity testing of selected compounds\nThe impact of compounds on cell viability was assayed at the end of incubation period using a standard MTT assays as described earlier in Svarcbahs et al.11 and Myöhänen et al.12 HEK-293 and SH-SY5Y cells and mouse primary neurons were seeded onto 96-well plates (10,000 cells/well) and incubated overnight. Thereafter, the cells were incubated with 1, 10, and 100 µM of study compounds for 24 h (HEK-293 and SH-SY5Y cells) or 48 h (mouse primary neurons), followed by the measurement of mitochondrial […]\nFigure S68. Selected oxazoles were tested for cell viability in an MTT assay after 24 h treatment in (A) HEK-293 cells and (B) SH-SY5Y cells and 48 h treatment in (C) mouse primary neurons. Even with the high […]\nData are presented as mean + […]\nLC-MS detection of HUP-55 metabolites in the mouse brain\n(§1) The same column and gradient was used with UPLC-HDMS analysis of the metabolites of HUP-55, as for the analysis of HUP-55 detailed in the experimental section of the article. The analyses were performed with ESI (+) resolution mode and the exact masses were analysed with UPLC-Synapt G2 QTOF/MS (Waters). The […]\nCompound Retention time (min) m/z (M+H)+ Empirical formula"}, "mouse primary neurons": {"system": "mouse primary neurons", "assay": "Cell viability (MTT) in mouse primary neurons", "type": "cell-based", "conditions": "up to 100 μM, 48 h", "method": "Pure primary mouse cortical neurons were obtained from C57BL/6JRccHsd mice (WT) (P1). Cortical tissue was dissected out and dissociated in ice-cold Hank’s Balanced Salt Solution (HBSS) medium (#14175, ThermoFisher Scientific) containing trypsin (0.25 mg/mL) and DNAse (5 U/mL). After centrifugation, cortical neurons were resuspended in Neurobasal Medium (NBM; #21103049, ThermoFisher Scientific) containing 2% (v/v) B27 (#17504044, ThermoFisher Scientific), 1% (v/v) penicillin–streptomycin solution, 100 μg/mL Primocin (#ant-pm-1, InvivoGen, Toulouse, France), and 2 mM glutamine (#25030081, ThermoFisher Scientific) and seeded onto poly-L-lysine (#p4707, Sigma)-coated cell culture plates at an appropriate density (40,000 cells/well to 96-well plates). After 24 h seeding, the medium was half-changed, and neurons were maintained at 37 °C in a 5% CO2 incubator. The neurons were cultured for 7 days for experimental use.\nToxicity testing of selected compounds […]\nas §1, with “(Waters).” for “(Waters). The”"}, "[2]": {"target": "T1, PREP activity in mouse brain (Mus musculus, UniProt Q9QUR6)", "T1 construct": "measuring PREP activity from mouse brain tissue lysates; from tissue; host or cells: mouse brain (C57BL/6JRccHsd mice)", "assay": "PREP activity in mouse brain tissue lysates after i.p. administration", "type": "in vivo", "conditions": "10 mg/kg i.p."}, "[3]": {"target": "T2, PREP activity in mouse liver (Mus musculus, UniProt Q9QUR6)", "T2 construct": "PREP activity was measured from mouse brain and liver tissue samples; from tissue; host or cells: mouse liver", "assay": "PREP activity in mouse liver after i.p. administration", "type": "in vivo", "conditions": "10 mg/kg i.p., throughout the monitoring period"}, "[4]": {"system": "LC3BII in HEK-293 PREP-KO cells", "assay": "LC3BII Western blot in PREP-KO cells"}, "[5]": {"system": "AAV2-CBA-αSyn-injected mice", "assay": "Cylinder test in AAV-αSyn PD mouse model", "conditions": "10 mg/kg/day minipump, vs vehicle-treated AAV-αSyn mice"}, "[6]": {"assay": "LC-MS detection of HUP-55 in the mouse brain"}, "[7]": {"assay": "Stability studies (NMR, MS, polarimetry, long-term monitoring)"}},
  "data": [
    {"smiles": "Cc1nc(CCCc2ccccc2)oc1N1CCC[C@H]1C#N", "note": "[HUP-55, (S)-1-(4-Methyl-2-(3-phenylpropyl)oxazol-5-yl)pyrrolidine-2-carbonitrile]", "values": [
      {"measurement": "effect on αSyn dimerization", "setting": "[1]", "result": "decreases αSyn dimerization"},
      {"measurement": "toxicity (cell viability)", "setting": "HEK-293 cells", "result": "None of the compounds caused any toxicity"},
      {"measurement": "toxicity (cell viability)", "setting": "mouse primary neurons", "result": "None of the compounds caused any toxicity"},
      {"measurement": "decrease of brain PREP activity compared to the DMSO control", "setting": "[2]; during the first 45 min", "result": 50, "unit": "%"},
      {"measurement": "brain PREP activity, % of the control", "setting": "[2]; end of the 3 h monitoring period", "result": 80, "unit": "%"},
      {"measurement": "decrease of liver PREP activity", "setting": "[3]", "result": "approximately 25%"},
      {"measurement": "levels of the autophagosome marker LC3BII", "setting": "[4]", "result": "not altered"},
      {"measurement": "use of the ipsilateral forepaw in the cylinder test (in words)", "setting": "[5]; after 2 weeks of treatment (6-week time point)", "result": "significantly decreased their use of the ipsilateral forepaw"},
      {"measurement": "ipsilateral paw use in the cylinder test (in words)", "setting": "[5]; endpoint 8 weeks post injection", "result": "statistically significant difference in ipsilateral paw use"},
      {"measurement": "presence in the brain (in words)", "setting": "[6]; 10 mg/kg i.p., 180 min", "result": "detectable amounts were still present"},
      {"measurement": "AUC(0-t) at 3 h", "setting": "[6]; C57BL/6JRccHsd, brain, ip, 10 mg/kg", "result": 1.74, "unit": "µM·h"},
      {"measurement": "hydrolysis or decomposition of the oxazole ring (NMR stability)", "setting": "[7]; NMR sample in DMSO-d6 observed over 2 months", "result": "not observed"},
      {"measurement": "hydrolysis or decomposition of the oxazole ring (MS stability)", "setting": "[7]; conditions of the PREP inhibition assay, analyzed by MS", "result": "not observed"}
    ]}
  ]
}
